# Among all 48,000 compounds or so, about 450 (0.94%) were called active. Another 19% or so got no clear call; they are omitted. Calls follow the shape of the dose curve; as a rule, active = well fitted inhibition curve with a large enough effect; inconclusive = small, poorly fitted or top-dose-only effect; inactive = no such curve, though single readings can be large or run the other way. This is one part of the list.
# Experiment: Primary qHTS for Identification of Small Molecule Inhibitors of Huntingtin Promoter Activity; also: nearly all actives have a fitted effect of over 50% in size
# Settings: HEK293 HTT promoter firefly luciferase reporter (activity 0% = vehicle and -100% = no light), 24 h; series mostly up to 57.5 µM; activity change, negative = inhibition: at the top concentration
# Outline: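 HEK293 Fluc reporter, 2,500 cells/well, 24 h pre-culture; cpds up to 57.5 uM final, 24 h 37 degrees C; Dual-Glo, 10 min RT; normalized vehicle = 0%, zero RLU = -100%.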
# Potency is read from the fitted curve at half-maximal effect.
Compound,"activity change, negative = inhibition",Potency
COc1ccc(NC(=O)CCCSc2nc(-c3ccco3)cc(C(F)(F)F)n2)cc1OC,inactive: -11.6% [at 11.5 µM],–
CCc1ccc(-c2cn3c(n2)sc2cc(C(=O)NC4CCCCC4)ccc23)cc1,inactive: -7.44%,–
COc1cccc(-c2nc(S(=O)(=O)c3ccc(Cl)cc3)c(NCc3ccccc3)o2)c1,inactive: -21.9%,–
COc1cccc(C(=O)Nc2cccc(OCc3cc(=O)n4c5c(sc4n3)CCCC5)c2)c1,inactive: 7.36%,–
CC(=O)Nc1ccc(NS(=O)(=O)c2c(C(=O)N3CCC(C)CC3)c(C)n(C)c2C)cc1,inactive: -18.6%,–
COc1ccc2oc(=O)c(C(=O)NCCc3c(C)[nH]c4ccc(F)cc34)cc2c1,inactive: -2.25%,–
COCCNc1oc(-c2ccccc2)nc1S(=O)(=O)c1ccc(Br)cc1,inactive: -22.6%,–
COc1ccc2sc(N(Cc3cccnc3)C(=O)c3ccc4c(c3)OCCO4)nc2c1,–,active: 11.2 µM
CC(C)CCNC(=O)c1cc2cc(S(=O)(=O)N3CCCCC3)ccc2n1C,inactive: -26.2%,–
O=C(NCCc1ccccc1Cl)c1sc2ncccc2c1-n1cccc1,inactive: 0%,–
O=C(NC1CCN(CCc2c[nH]c3ccccc23)CC1)c1ccccc1,inactive: -8.7%,–
CCC(=O)N1c2ccccc2CC1C(=O)NCCc1ccccc1 (stereo not given),inactive: -24.6%,–
CCC(=O)Nc1ccccc1-c1nc2ccccc2n(CC(=O)c2ccc(C)cc2)c1=O,inactive: -1.74%,–
CSc1ncc(Cl)c(C(=O)Nc2c(C(=O)Nc3cccc(Cl)c3)oc3ccccc23)n1,inactive: -2.68%,–
COc1ccc(CNC(=O)CCCN2C(=O)COc3ccc(C)cc32)cc1,inactive: 13%,–
COc1cccc(Cn2nnc3c(=O)[nH]c(C4CCN(C(=O)c5ccccc5Cl)CC4)nc32)c1,inactive: -21.4%,–
CC1=C(C(N)=O)C(c2ccccc2Br)n2ncnc2N1 (stereo not given),inactive: -5.71%,–
CC(C)(C)C(=O)Oc1ccc2c(c1)nc(NC(=O)c1cccc([N+](=O)[O-])c1)n2CCCO,inactive: -3.09%,–
O=C(NCc1ccccc1Br)c1cnc2sc(N3CCCCCC3)nn2c1=O,inactive: 11%,–
COc1ccc(-n2nc(C(=O)N3CCCC(C)C3)c3c4ccccc4n(C)c3c2=O)cc1Cl (stereo not given),inactive: 3.28%,–
CCOC(=O)c1ccc(NC(=O)CSc2c3c(nc4cc(Cl)ccc24)CCCC3)cc1,inactive: -4.6%,–
CCN(CC)c1nc2ccccc2nc1C(=O)Nc1cc(OC)c(OC)c(OC)c1,inactive: -24.4%,–
Cc1nn2c(C)c(C(=O)NCc3ccco3)cnc2c1-c1ccccc1,inactive: -18.6%,–
Cc1nn(C(=O)c2ccc(Cl)cc2)c(C)c1S(=O)(=O)N1CCCCCC1,inactive: -8.44%,–

Compound,"activity change, negative = inhibition",Potency
Cc1ccc(N2CCn3c2nc2c3c(=O)n(CCCc3ccccc3)c(=O)n2C)cc1C,inactive: 2.17%,–
COc1ccc(OCC(=O)NCC(c2ccc(OC)cc2)N2CCCCC2)cc1 (stereo not given),inactive: -18.6%,–
COc1ccc(C2C(C(=O)Nc3cccnc3)=C(C)Nc3nc(-c4ccccc4)nn32)cc1OC (stereo not given),inactive: -6.88%,–
O=c1[nH]c(=O)n(C2CCCCC2)c(O)c1C1=Nc2ccccc2SC(c2ccccc2)C1 (stereo not given),inactive: 28.1%,–
COc1ccccc1NC(=O)C1=C(C)Nc2nc(SCc3ccccc3Cl)nn2C1c1ccccn1 (stereo not given),inactive: -8.57%,–
CN(C)c1ccc(/C=C/c2noc(-c3ccccc3O)n2)cc1,inactive: -16.3%,–
CSc1ccc(CCNS(=O)(=O)c2ccc3c(c2)C(C)(C)C(=O)N3C)cc1,inactive: -32.4%,–
Cc1ccc(C(c2cccc(Br)c2)c2c(C)[nH]c3ccccc23)s1 (stereo not given),inactive: -0.466%,–
COc1cc(OC)cc(C(=O)N2CCN(C(=O)COc3ccccc3)CC2)c1,inactive: 3.95%,–
O=c1c2ccccc2n2c(-c3ccc(Cl)cc3)nnc2n1CCc1ccccc1,inactive: -8.58%,–
COc1ccc(-c2nc(CSc3nnc(C)n4c3cc3occc34)c(C)o2)cc1OC,inactive: -13.2%,–
CCc1ccc(-n2nc(C)c3c(C)cc(=O)n(CC(=O)Nc4ccc(C(C)=O)cc4)c32)cc1,inactive: -16.2%,–
CC(C)C(NS(=O)(=O)c1ccc2c(c1)oc(=O)n2C)C(=O)NCCc1ccccc1 (stereo not given),inactive: -15.2%,–
O=C(Cn1ncc2c3ccccc3n(Cc3ccc(F)cc3)c2c1=O)NCCC1=CCCCC1,inactive: -5.7%,–
Cc1ccc(C)c(CN2C(=O)c3ccccc3S(=O)(=O)c3ccc(C(=O)NCCCN4CCCC(C)C4)cc32)c1 (stereo not given),inactive: -20.9%,–
CCC(CC)c1nn2c(=O)cc(COc3ccc(NC(=O)c4ccc(C)cc4)cc3)nc2s1,inactive: -0.745%,–
Cc1nn(C(=O)c2ccc(Cl)cc2)c(C)c1S(=O)(=O)N1CCOCC1,inactive: -6.08%,–
Cc1cn2c(=O)cc(COC(=O)c3cccc(NC(=O)c4ccccc4Cl)c3)nc2s1,inactive: -23.2%,–
CCc1ccc(CNC(=O)CN2C(=O)CSc3c2c(C)nn3-c2ccccc2)cc1,inactive: -22.7%,–
Cc1ccc(CNc2ncnc3c2nnn3C)cc1,inactive: 7.59%,–
COc1ccc(CCNC(=O)c2ccc3c(c2)N(Cc2cc(C)ccc2C)C(=O)c2ccccc2S3=O)cc1OC (stereo not given),inactive: -23.5%,–
COc1ccc(-c2nc(SCC(=O)N3CCN(c4ccc(F)cc4)CC3)n[nH]2)cc1,inactive: -4.06%,–
CCCCOc1ccc(CNC(=O)Cc2ccc(NC(=O)N3CCCCc4ccccc43)cc2)cc1,inactive: -14.6%,–
CCn1c(=O)n(-c2ccc(F)cc2)c(=O)c2sc3ccccc3c21,inactive: -5.49%,–

Compound,"activity change, negative = inhibition",Potency
CC(C)(C)OC(=O)N1CCC(c2c(C(=O)N3CCN(c4ccccc4)CC3)cnn2-c2ccccc2)CC1,inactive: -4.82%,–
CC(=O)N1CCC2(CC1)OC(=O)C(C)=C2C(=O)Nc1cc(C)ccc1C,inactive: -1.34%,–
CCCN(C(=O)c1cc2ccc3cccnc3c2[nH]1)c1ccc(F)cc1,inactive: 34%,–
O=C(c1ccccc1Cl)N(Cc1ccco1)c1ccccn1,inactive: -7.03%,–
Cc1cc(Br)ccc1NC(=O)Cn1cnc2sc(C)c(S(=O)(=O)N3CCN(C)CC3)c2c1=O,inactive: 7.02%,–
COC(=O)c1sc2cccc(F)c2c1S(=O)(=O)Nc1ccc(N(C)C)cc1,inactive: 0%,–
CC(=O)Nc1ccc(-n2c(CCC(=O)O)ccc2-c2ccc(Br)cc2)cc1,inactive: -8.84%,–
COc1ccc(Cl)cc1NC(=O)Cn1c(=O)n(Cc2cccs2)c(=O)c2cccnc21,inactive: -15.7%,–
COc1ccc(CNC(=O)Cc2c(C)c3c(cc(C)c4c(C)coc43)oc2=O)cc1OC,inactive: 1.33%,–
CC1=C(C(=O)O)N2C(=O)[C@@H](NC(=O)C(N)c3ccccc3)[C@H]2SC1 (stereo not given in full),inactive: 2.11%,–
CCOC(=O)c1cc(-c2ccc(C)cc2)n(CC(=O)Nc2ccccc2F)c1C,inactive: -15.2%,–
CCCC(=O)Nc1ccc(O)c(C(C)=O)c1,inactive: 0.835%,–
COc1ccc(Br)c2c1-c1nc(NC(=O)c3ccccc3F)sc1C2,inactive: -13.4%,–
CCc1ccc(-c2[nH]nc3nc(-c4ccc(OC)cc4)cc(C(=O)NCCCOC)c23)cc1,inactive: 12.4%,–
COC(=O)c1ccccc1NC(=O)c1ccc(COc2cc(C)cc(C)c2)o1,inactive: -12.6%,–
CCOc1ccc(NC(=O)CCn2c(=O)c3cccn3c3cccnc32)cc1,inactive: -0.905%,–
Cc1nn(-c2ccc(F)cc2)c(-n2cccc2)c1C(=O)N1CCN(c2ccccc2)CC1,inactive: -31.5%,–
Cc1cc2nn(-c3ccccc3)nc2cc1NC(=O)COc1ccc(Cl)cc1,inactive: 70.7%,–
CCCN(CCC)C(=O)Cn1c(=O)n(-c2ccc(C)c(C)c2)c(=O)c2c3c(sc21)CCCCC3,inactive: -9.24%,–
Cc1ncc(CO)c2c1Oc1nc(-c3ccc(F)cc3)nc(SCC(=O)N3CCCCC3)c1C2,inactive: -18.9%,–
Cc1ccc(NC(=O)CSc2nnc(-c3cc4occc4n3C)n2-c2ccccc2C)c(Cl)c1,inactive: -26%,–
Cc1ccc(C)c(Cn2c3ccccc3c3cnn(CC(=O)NC4CCC(C)CC4)c(=O)c32)c1 (stereo not given),inactive: 0%,–
O=C(NCCc1ccccc1)C1CCN(c2ncnc3c2nc2n3CCCCC2)CC1,inactive: 11%,–
COc1ccc(NC(=O)CSC2=Nc3ccccc3C3=NC(CCC(=O)NCc4cccs4)C(=O)N23)cc1 (stereo not given),inactive: -28.2%,–

Compound,"activity change, negative = inhibition",Potency
CCCCOC(=O)/C(C#N)=C/c1ccc(-c2cccc(C(F)(F)F)c2)o1,inactive: -20.8% [at 11.5 µM],–
CC1=C(C(=O)NCc2cccc(Br)c2)C2(CCCCC2)OC1=O,inactive: -24.1%,–
CCOc1ccc(-c2nonc2NC(=O)c2ccco2)cc1,inactive: -19.7%,–
CCOc1ccc(NC(=O)CSc2nc3c(oc4ccccc43)c(=O)n2-c2cc(C)cc(C)c2)cc1,inactive: -4.33%,–
COc1cc(/C=C/c2nc(C#N)c(N3CCCCC3)o2)cc(OC)c1OC,inactive: 2.41%,–
Cc1ccc(C(=O)Nc2c(-c3ccccc3)nc3ccccn23)cc1,inactive: -5.97%,–
Cc1ccc(C2c3[nH]c4ccccc4c3CCN2C(=O)c2ccccc2Br)cc1 (stereo not given),inactive: -38.5%,–
CCC(C(=O)OCc1cc(=O)n2nc(C)sc2n1)c1ccccc1 (stereo not given),inactive: -25.3%,–
Cc1cccc(-c2noc(CN(C3CCCCC3)S(=O)(=O)c3ccc(F)cc3)n2)c1,inactive: -15.3%,–
COc1ccc2c(c1)-c1nc(NC(=O)c3ccc(OC)c(Br)c3)sc1CC2,inactive: -26.6%,–
COc1ccc(OC)c(NC(=O)c2c(NCc3sccc3C)sc3c2CCCCC3)c1,inactive: -7.7%,–
COc1ccc(CNC(=O)CN(c2ccc(C(C)C)cc2)S(=O)(=O)c2c(C)nn(C)c2C)cc1,inactive: -21%,–
COc1ccc(NC(=O)CSc2nc3ccccc3nc2N2CCC(C)CC2)cc1,inactive: -17.5%,–
Cc1ccccc1NC(=O)Nc1nnc(N2CCCCCC2)s1,inactive: 10.6%,–
COc1ccccc1NC(=O)CCn1nc(-c2ccccc2OC)c2c(C)cc(C)nc21,inactive: -26.6%,–
Cc1ccccc1OCC(=O)OCc1cc(=O)n2nc(C3CC3)sc2n1,inactive: -1.36%,–
CCC(=O)N1CCc2cc(Br)cc(S(=O)(=O)CCC(=O)N3CCN(c4ccc(F)cc4)CC3)c21,inactive: 11.5%,–
Cc1cc(C)c(C)c(OCC(=O)Nc2ccc(S(=O)(=O)Nc3nc(C)cc(C)n3)cc2)c1,inactive: 2.65%,–
COc1ccccc1OCC(O)COC(N)=O (stereo not given),inactive,–
CCOC(=O)C1CCCN(C(=O)C2CCN(S(=O)(=O)c3c(C)noc3/C=C/c3ccccc3F)CC2)C1 (stereo not given),inactive: -18.5%,–
COc1ccc(CC(=O)NCCc2sc3nc(-c4ccc(OC)cc4)nn3c2C)cc1,inactive: -19.2%,–
CCCN(CCC)CCCNC(=O)c1cn(CC)c2ccc(S(=O)(=O)N(C)C3CCCCC3)cc2c1=O,inactive: -0.466%,–
CCc1ccc(OCc2cc(=O)n3c4c(sc3n2)CCCC4)cc1,inactive: -3.58%,–

# Source: PubChem BioAssay AID1508623 (National Center for Advancing Translational Sciences (NCATS), 2021)
